{"source": "PubChem BioAssay AID1345083", "about": "(National Center for Advancing Translational Sciences (NCATS), 2018)", "note": "About 6,200 (6.6%) of roughly 94,000 compounds were called active. The inconclusive results got no clear call from the source; some entries with a clear call stand among them for comparison. The call rests on the fitted dose curve; in most records, active means well fitted inhibition curve with a large enough effect; inconclusive means small, poorly fitted or top-dose-only effect; inactive means flat fitted curve, though single readings scatter. Potencies of inconclusive entries are doubtful fits and often do not repeat. On the % scale 0 is the no-effect control and ±100 the full control effect; potency means the concentration at half of the fitted maximal effect; tags describe the fitted curve by direction and shape.", "data": [{"test": "Cytotoxic Profiling in HEK 293 Cell Line of Diverse Libraries Using Quantitative High-Throughput Screening; further: nearly all actives have a fitted effect of over 60% in size", "conditions": "HEK 293 viability, ATP luminescence (CellTiter-Glo), 48-72 h; activity change, negative = cytotoxicity: at 115 µM (top of the series) unless noted; series mostly up to 115 µM", "how_it_was_run": "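Cytotoxicity was scored by loss of ATP-coupled luminescence (CellTiter-Glo) in HEK 293 cells. Compound treatment ran 48 or 72 hr at 37 degree Celsius, 5% CO2, 95% humidity.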", "values": [{"smiles": "COc1ccc(C(=O)N[C@@H]2CCC[C@@H]2C(=O)N2CCOCC2)cn1", "outcome": "inactive"}, {"smiles": "CN1CC[C@H]2CN(C(=O)C3(Cn4ccnc4)CC3)C[C@@]2(C(=O)O)C1", "outcome": "inactive"}, {"smiles": "O=C(Nc1ccc2ncnc(N3CCCCC3)c2c1)c1ccccc1Br", "Potency": "active: 44.7 µM"}, {"smiles": "COc1ccc(NC(=O)c2cccc3c2CCN3C(=O)c2ccc(F)cc2)cc1", "activity change, negative = cytotoxicity": "inactive: 11.3%"}, {"smiles": "CCOc1ccc(C2Cn3nnc(-c4nc(-c5ccccc5Cl)no4)c3CO2)cc1", "note": "(stereo not drawn)", "Potency": "inconclusive: 31.6 µM [inhibitor, full curve]"}, {"smiles": "Cc1ccc(CNC(=O)C2CCCCC(=O)N2Cc2ccccc2)cc1", "note": "(stereo not drawn)", "Potency": "inconclusive: 50.1 µM [inhibitor, partial curve]"}, {"smiles": "Cc1ccc(C(=O)N2CCCCCCNC(=O)[C@@H]3C[C@@H](c4nc(Cc5ccccc5)no4)C[C@@H]32)s1", "Potency": "active: 79.4 µM"}, {"smiles": "COc1ccccc1-c1cccc(CN2CCCC(C(=O)NCC3CC3)C2)c1", "note": "(stereo not drawn)", "Potency": "active: 39.8 µM"}, {"smiles": "COc1ccc(Nc2ccnc(N3CCC(C(=O)NCC4CC4)CC3)n2)cc1", "Potency": "inconclusive: 44.7 µM [inhibitor, partial curve, poor fit]"}, {"smiles": "O=C(CC1CCCC1)N1CCC(c2nc(CCOc3ccc(F)cc3)no2)C1", "note": "(stereo not drawn)", "Potency": "inconclusive: 56.2 µM [inhibitor, partial curve, poor fit]"}, {"smiles": "O=C1COc2ccc(-c3ccccc3)nc2CN1Cc1ccccc1", "Potency": "active: 112 µM"}, {"smiles": "Cc1nn(-c2ccccc2)c2c1C(C(C)C)N(C1CCN(C(=O)N3CCOCC3)C1)C2=O", "note": "(stereo not drawn)", "Potency": "active: 79.4 µM"}, {"smiles": "Cc1ccc(NC(=O)N2CCC(OC3CCN(S(C)(=O)=O)CC3)CC2)cc1Cl", "Potency": "inconclusive: 56.2 µM [inhibitor, partial curve, poor fit]"}, {"smiles": "O=c1[nH]c(C2CCN(Cc3ccc(Cl)cc3)CC2)nc2ccc(F)cc12", "Potency": "inactive"}, {"smiles": "CC1(c2ccccc2)N(Cc2ccc(O)cc2)C(=O)OC12CCN(C(=O)C1CCC1)CC2", "note": "(stereo not drawn)", "Potency": "inconclusive: 100 µM [inhibitor, partial curve, poor fit]"}, {"smiles": "COc1cccc([S+](=O)([O-])NC2CCN(c3ccc4nnc(-c5ccccc5)n4n3)C2)c1", "note": "(stereo not drawn)", "Potency": "inconclusive: 79.4 µM [inhibitor, partial curve, poor fit]"}, {"smiles": "O=C(NC1CCN(C(=O)N2CC3CC(C2)[C@H]2CCCC(=O)N2C3)CC1)c1ccsc1", "note": "(stereo partly drawn)", "activity change, negative = cytotoxicity": "inactive: 6.66%"}, {"smiles": "O=S(=O)(c1ccc(Cl)s1)N1CCC(n2cnnc2C2CC2)CC1", "activity change, negative = cytotoxicity": "inactive: -14.8%"}, {"smiles": "CCc1ccc(CN2CCC(O)(Cc3cc(-c4cccc(OC)c4)no3)CC2)o1", "Potency": "inconclusive: 79.4 µM [inhibitor, partial curve, poor fit]"}, {"smiles": "O=C(NCc1ccc(C(F)(F)F)cc1)[C@@H]1Cc2nc[nH]c2CN1Cc1ccc([N+](=O)[O-])cc1", "Potency": "inconclusive: 79.4 µM [inhibitor, partial curve, poor fit]"}, {"smiles": "c1ccc(-c2cc3c(cn2)NCCN(Cc2ccccn2)C3)cc1", "Potency": "inconclusive: 112 µM [inhibitor, single point]"}, {"smiles": "O=C(CCC1CCN(S(=O)(=O)c2ccccc2)CC1)NCc1cccc(F)c1", "Potency": "inconclusive: 50.1 µM [inhibitor, partial curve, poor fit]"}, {"smiles": "Cn1cccc1C(=O)NC[C@H]1O[C@@H](CO)[C@@H](O)C1N1CCN(c2ccccc2)CC1", "note": "(stereo partly drawn)", "Potency": "inconclusive: 56.2 µM [inhibitor, partial curve, poor fit]"}, {"smiles": "Cc1nc(N2CCN(C(=O)c3ccc(F)c(Cl)c3)CC2)cc(C(F)(F)F)n1", "Potency": "inconclusive: 56.2 µM [inhibitor, partial curve, poor fit]"}, {"smiles": "CN(Cc1cccc(C(F)(F)F)c1)C(=O)Nc1ccc(Cl)cc1", "Potency": "active: 39.8 µM"}, {"smiles": "O=C(N[C@H]1CCN2C(=O)c3cc(-c4ccccc4)ccc3NC(=O)[C@H]12)c1cccs1", "activity change, negative = cytotoxicity": "inactive: -23.4% [at 172 µM]"}, {"smiles": "COc1ccc(C(=O)N2CCCC(C(=O)N3CCC(N4Cc5cccn5C4=O)CC3)C2)cc1", "note": "(stereo not drawn)", "Potency": "inconclusive: 89.1 µM [inhibitor, single point]"}, {"smiles": "CN(C)C(=O)CN1C(=O)CO[C@H](c2ccc(NC(=O)c3ccc(F)c(Cl)c3)cc2)[C@H]1CO", "activity change, negative = cytotoxicity": "inactive: 1.45%"}, {"smiles": "O=C(COc1ccccc1)NC[C@H]1COCc2nc3cccnc3n21", "Potency": "inconclusive: 79.4 µM [inhibitor, partial curve]"}, {"smiles": "O=C(NC1CCN(Cc2cccc(-c3cccs3)c2)CC1)c1ccccn1", "Potency": "inconclusive: 50.1 µM [inhibitor, partial curve, poor fit]"}, {"smiles": "O=C1c2cccnc2OC(COc2ccccc2)CN1Cc1cccs1", "note": "(stereo not drawn)", "Potency": "inconclusive: 31.6 µM [inhibitor, partial curve, poor fit]"}, {"smiles": "Cn1ncc2c(C(=O)NCc3cccc(C(F)(F)F)c3)cc(-c3ccc(C(F)(F)F)cc3)nc21", "activity change, negative = cytotoxicity": "inactive: -7.21%"}, {"smiles": "CCc1nc(-c2c3n(c(=O)n(Cc4cccc(C#N)c4)c2=O)CCCCC3)no1", "activity change, negative = cytotoxicity": "inactive: 14.3%"}, {"smiles": "CCC(=O)N1CCN(c2nc3c(s2)CC(C(=O)N2CCCCC2)CC3)CC1", "note": "(stereo not drawn)", "activity change, negative = cytotoxicity": "inactive: -22.3%"}, {"smiles": "O=C(Cn1nc2c(cc1=O)CCCCC2)Nc1nc(-c2ccncc2)cs1", "Potency": "inconclusive: 15.8 µM [inhibitor, full curve, poor fit]"}, {"smiles": "COc1ccc(-c2ccnc(N[C@H]3CO[C@H]4[C@@H]3OC[C@H]4OCC(=O)N(C)C)n2)cc1", "Potency": "inconclusive: 112 µM [inhibitor, partial curve, poor fit]"}, {"smiles": "COc1ccc(CN2CCNc3cc(-c4ccnc(C)c4)ncc3C2)cc1", "Potency": "active: 89.1 µM"}, {"smiles": "O=C(Cc1c[nH]c2ncc(-c3ccccc3)cc12)Nc1ccc(C(F)(F)F)cc1", "Potency": "active: 63.1 µM"}, {"smiles": "Cn1ncc2c(C(=O)NCC(F)F)cc(-c3ccc(Cl)nc3)nc21", "activity change, negative = cytotoxicity": "inactive: -10.6%"}, {"smiles": "COc1ccc(C(=O)N2CCOC[C@H](Oc3ccc(C(F)(F)F)cc3)C2)cc1", "Potency": "inconclusive: 100 µM [inhibitor, partial curve]"}, {"smiles": "O=[S+]([O-])(c1cccs1)N1CCc2nc(-c3ccccc3)nc(-c3ccc(Cl)cc3)c2C1", "activity change, negative = cytotoxicity": "inactive: -0.546%"}, {"smiles": "COc1ccccc1C(=O)N1CC2(C1)NC(=O)c1ccccc1O2", "activity change, negative = cytotoxicity": "inactive: -23.8% [at 172 µM]"}, {"smiles": "COc1ccccc1C(=O)NC[C@@H]1C=C(C)[C@H](CC(=O)N2CCCC2)C[C@H]1C(C)C", "Potency": "inconclusive: 89.1 µM [inhibitor, partial curve, poor fit]"}]}]}
